# Measurements as given in PubChem BioAssay AID1671193 (National Center for Advancing Translational Sciences (NCATS), 2021).
# Values joined by “and” are separate entries in the source; they are usually repeats but may differ in a detail not shown here. Equal entries are not always repeated. Screen size: about 150,000 compounds; about 180 (0.12%) were called active. The shares of active, inactive and inconclusive entries below differ from those in the screen. Calls come from the whole dose curve; as a rule, active = well fitted cell-killing curve with a large enough effect; inconclusive = small, poorly fitted or top-dose-only effect, or effect the other way; inactive = flat fitted curve, though single readings scatter. Where the call is inconclusive, the potency comes from a doubtful curve fit.
# Experiment: GF-AFC viability counterscreen for inhibitors of alpha-synuclein gene (SNCA) expression; note: nearly all actives have a fitted effect of over 30% in size;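 for activity change, negative = cytotoxicity: 0% = DMSO-treated cells and -100% = medium-only wells without cells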
# Settings: HEK-293-SNCA-luc viability, GF-AFC fluorescence, 24 h; activity change, negative = cytotoxicity: at 57.1 µM (top of the series) unless noted
# Procedure, shortened: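 Cytotoxicity counterscreen: after 24 h compound treatment of genome-edited SNCA-luciferase HEK-293 cells, live-cell protease substrate GF-AFC read by fluorescence after 30 min; activity scaled between DMSO (0%) and medium-only (-100%), curves Hill-fitted.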
# Potency is the fitted concentration of half-maximal effect; tags give direction and shape of the fitted curve.
Compound,Potency,"activity change, negative = cytotoxicity"
COc1cc2c(cc1OCc1ccccc1)N(C(=O)Cc1ccc3c(c1)OCO3)CC21CCN(C)CC1,inactive,–
CCC(C(=O)Nc1ccccc1F)N1C(=O)CN=C(c2ccccc2)c2ccccc21 (stereo unspecified),"inconclusive: 2.82 µM [cytotoxic, full curve, poor fit]",–
COc1ccc(-c2cn(C[C@H]3CC4CCN3C[C@@H]4C(=O)NCc3ccc4c(c3)OCO4)nn2)cc1 (stereo partly specified),inactive,–
COc1ccc(-c2nc(CN3C(=O)CN=C(c4ccccc4Cl)c4cc(Cl)ccc43)c(C)o2)cc1OC,"inconclusive: 31.6 µM [cytotoxic, single point]",–
COC1CC(OC2CCC3(C)C(CCC4C3CCC3(C)C(C5=CC(=O)OC5)C(OC(C)=O)CC43O)C2)OC(C)C1OC1OC(CO)C(O)C(O)C1O (stereo unspecified),"inconclusive: 2.51 µM [cytotoxic, partial curve, poor fit]",–
C[C@@H]1O[C@@H](O[C@H]2CC[C@@]3(C)C(CC[C@@H]4C3CC[C@]3(C)[C@@H](C5=CC(=O)OC5)CC[C@]43O)C2)[C@H](O)[C@H](O)[C@H]1O (stereo partly specified),"inconclusive: 5.19 µM [cytotoxic, partial curve]",–
CC[C@H]1/C=C\C=C/C[C@@H](C)[C@H](O)[C@@](C)(O)C(=O)[C@@H](C)[C@H](O)[C@@H](C)C(=O)[C@@H](C)[C@H](O)[C@@H](C)/C=C\C(=O)O[C@@H]2[C@H](C)[C@H](CC1)O[C@]1(CC[C@H](C)[C@H](C[C@@H](C)O)O1)[C@H]2C,–,inconclusive: -57%
CN1CCCCC1Cn1cc(C(=O)c2cc([N+](=O)[O-])ccc2I)c2ccccc21 (stereo unspecified),active: 23.8 µM,–
C[C@@H]1O[C@@H](O[C@@H]2C=C3CC[C@@H]4[C@@H](CC[C@]5(C)[C@H](c6ccc(=O)oc6)CC[C@@]45O)[C@@]3(C)CC2)[C@H](O)[C@H](O)[C@H]1O,"inconclusive: 0.0764 µM [cytotoxic, full curve, poor fit]",–
COc1ccc(S(=O)(=O)NC[C@H]2C[C@@H]3CCN2C[C@@H]3CN2CCC(Cc3ccccc3)CC2)cc1,"inconclusive: 31.6 µM [cytotoxic, single point]",–
CCC(CC)c1cc([C@H]2CN3CC[C@H]2C[C@@H]3CNC(=O)Nc2ccc(C(C)=O)cc2)nc(-c2ccncc2)n1,inactive,–
C=C1C(=O)OC2/C=C(\COO)CC/C=C(\COC(C)=O)CC(OC(=O)C(C)CC)C12 (stereo unspecified),"inconclusive: 8.22 µM [cytotoxic, partial curve, poor fit]",–
CCCNC(=O)OC[C@H]1C[C@@H]2CCN1C[C@@H]2c1cc(-c2ccccc2OC)nc(C)n1,inactive,–
CC1(N2CCC(n3c([C@@H]4CCCNC4)nc4ccccc43)CC2)CCCCCCC1,"inconclusive: 19.2 µM [cytotoxic, partial curve] and inconclusive: 670 nM [cytotoxic, partial curve, poor fit]",–
N#Cc1ccc(CN2CCC3(CC2)C(=O)Nc2ccccc23)cc1,inactive,–
CC(=O)O[C@H]1CN2CCC1CC2,"inconclusive: 37.7 µM [rising, single point]",–

Compound,Potency,"activity change, negative = cytotoxicity"
CC[C@H]1C=CC=CC[C@@H](C)[C@H](O)[C@@](C)(O)C(=O)[C@@H](C)[C@H](O)[C@@H](C)C(=O)[C@@H](C)[C@H](O)[C@@H](C)C=CC(=O)O[C@@H]2[C@@H](C)[C@H](CC1)O[C@]1(CC[C@H](C)[C@H](C[C@@H](C)O)O1)[C@H]2C,"inconclusive: 1.36 µM [cytotoxic, full curve]",–
O=c1c2ccccc2nc(/C=C/c2cccc3ccccc23)n1-c1ccccc1Cl,"inconclusive: 7.94 µM [cytotoxic, partial curve]",–
Cc1ccc(-n2c(/C=C/c3ccc(Br)s3)nc3ccccc3c2=O)cc1,"inconclusive: 7.08 µM [cytotoxic, single point]",–
CC(N)Cc1c[nH]c2ccccc12 (stereo unspecified),inactive,–
O=C(Nc1ccccc1)N1CC[C@@]2(CCCN(C(=O)Oc3ccccc3)C2)C1,"inconclusive: 20 µM [cytotoxic, single point]",–
CC(=O)O[C@H]1C[C@@H](C)O[C@H]2O[C@@H]3CC4CC[C@@H]5C(CC[C@]6(C)[C@@H](C7=CC(=O)OC7)CC[C@]56O)[C@@]4(C=O)C[C@H]3O[C@]21O (stereo partly specified),"inconclusive: 0.0446 µM [cytotoxic, full curve, poor fit]",–
Cc1[nH]nc2ccc(-c3cncc(OC[C@@H](N)Cc4c[nH]c5ccccc45)c3)cc12,"active: 19.2 µM and inconclusive: 2.38 µM [cytotoxic, partial curve, poor fit]",–
Cc1nc(-c2ccccc2Br)cc([C@H]2CN3CC[C@H]2C[C@@H]3CNC(=O)Nc2ccccc2)n1,inactive,–
CO[C@H]1CCC(O[C@H]2C[C@H]([C@]3(C)CC[C@]4(C[C@H](O)[C@@H](C)[C@@H]([C@@H](C)C=C(C)C(=O)[C@H](C)C[C@H](C)C(=O)O)O4)O3)O[C@]3(O[C@@H]([C@H]4O[C@@](O)(CO)[C@H](C)C[C@H]4C)C[C@H]3C)[C@H]2C)O[C@H]1C (stereo partly specified),"inconclusive: 15.2 µM [cytotoxic, partial curve]",–
Cc1cccc(-n2c(/C=C/c3ccccc3O)nc3ccccc3c2=O)c1,"inconclusive: 14.1 µM [cytotoxic, partial curve, poor fit]",–
COc1ccc(C(CN(C)C)C2(O)CCCCC2)cc1 (stereo unspecified),"inconclusive: 0.0054 µM [rising, full curve, poor fit]",–
CC1=CC2OC3[C@H](O)C[C@@](C)([C@]34CO4)[C@@]2(CO)[C@H](O)C1=O (stereo partly specified),"inconclusive: 2.12 µM [cytotoxic, full curve, poor fit]",–
CC(C)C(=O)N1CCC2(CC1)NCc1ccccc1-n1ccnc12,"inconclusive: 10 µM [cytotoxic, partial curve, poor fit]",–
COc1ccc(-c2cc([C@H]3CN4CC[C@H]3C[C@@H]4CNC(=O)Nc3ccccc3)n(C)n2)cc1OC,inactive,–
CCOC(=O)[C@H]1CN(C(=O)Cc2ccc(OC)cc2)[C@]2(C)C(=O)N(CC3CC3)c3ccccc3[C@H]12,"inconclusive: 17.8 µM [cytotoxic, single point]",–
